Laboratory results published in PubChem BioAssay AID588855 (National Center for Advancing Translational Sciences (NCATS), 2011).
About 5,000 (1.2%) of roughly 410,000 compounds were called active. This list was built around the results that the source calls inconclusive (neither active nor inactive); the mix of calls is not that of the screen. Calls come from the whole dose curve; as a rule, active = well fitted inhibition curve with a large enough effect; inconclusive = small, poorly fitted or top-dose-only effect; inactive = no such curve, though single readings can be large or run the other way. A potency beside an inconclusive call is a rough fit, not a confirmed value.

test: qHTS for Inhibitors of TGF-b; settings: HepG2 CAGA-GFP TGF-b/SMAD3 reporter, GFP fluorescence, 18 h, TGF-beta stimulated, 500 pg/mL final; series mostly up to 46.1 µM; note: nearly all actives have a fitted effect of over 65% in size
Method in brief: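 Read-out: total well GFP (ex488/em500-530) summed from mean per-cell fluorescence. Cells: HEPG2 CAGA-GFP, 1% FBS DMEM, 18 h at 37 degrees C with 500 pg/mL final TGF-beta. Unstimulated wells served as the full-inhibition control; stimulated DMSO wells = 0%.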
Potency is the fitted concentration of half-maximal effect; tags give direction and shape of the fitted curve.

Q: For Cc1ccc(C(=O)N2C(=S)C(c3ccc(F)cc3)=NC23CCN(C)CC3)cc1, which Potency is on record?
A: inconclusive: 1.41 µM [inhibitor, partial curve, poor fit]

Q: With Cc1ccc(C)c(Nc2cc(C(=O)NC3CCCC3)c3ccccc3n2)c1 as the compound, how does the Potency read?
A: inactive

Q: Which Potency does the source give for CCOC(=O)C1CCCN(C(=O)c2sc3nc(-c4ccccc4)cn3c2C)C1 (stereo unspecified) here?
A: inactive

Q: For OC(COCc1cccs1)CN1CCN(c2cccc(C(F)(F)F)c2)CC1 (stereo unspecified), which Potency is on record?
A: inconclusive: 35.5 µM [inhibitor, single point]

Q: For Cc1ccc(-c2ccccc2)n1-c1ccc(C(=O)O)cc1, which Potency is on record?
A: inactive

Q: With Cc1cc(Cl)c2oc(C(=O)N3CCOCC3)c(C)c2c1 as the compound, how does the Potency read?
A: inactive

Q: Which Potency does the source give for COc1ccc(CC(N)c2csc(Nc3nccc(C(F)(F)F)n3)n2)cc1 (stereo unspecified) here?
A: inconclusive: 22.4 µM [inhibitor, single point]

Q: With Cc1ccc2cc(C#N)c(N3CCCN(S(=O)(=O)c4ccc(F)cc4)CC3)nc2c1 as the compound, how does the Potency read?
A: inactive

Q: Which Potency does the source give for O=C(COC(=O)c1ccccc1Nc1ccccc1)NCc1ccccc1 here?
A: inconclusive: 17.8 µM [inhibitor, single point]

Q: For CCCOC(=O)c1cccc(NC(=O)C(C)(C)C)c1, which Potency is on record?
A: inactive

Q: For COc1ccc(CCn2c(-c3cc([N+](=O)[O-])cc([N+](=O)[O-])c3)nc3nc4ccccc4nc32)cc1OC, which Potency is on record?
A: inactive

Q: With O=S(=O)(NCCC1=CCCCC1)c1ccc(Br)cc1 as the compound, how does the Potency read?
A: inconclusive: 17.8 µM [inhibitor, single point]

Q: With CCN(Cc1ccccc1)CC(O)COC(c1ccc(OC)cc1)c1ccc(OC)cc1 (stereo unspecified) as the compound, how does the Potency read?
A: inconclusive: 25.1 µM [inhibitor, single point]

Q: For CC(C)CC(=O)NC(=S)Nc1ccc(N2CCOCC2)c(Cl)c1, which Potency is on record?
A: inactive

Q: For O=C(Nc1nn(Cc2ccc(Cl)cc2)cc1Br)c1ccc(COc2ccccc2Cl)o1, which Potency is on record?
A: inconclusive: 15.8 µM [inhibitor, single point]

Q: For Cc1nc2cc(-c3ccccc3)nn2c(C)c1CCC(=O)Nc1ccc(F)cc1F, which Potency is on record?
A: inconclusive: 4.47 µM [inhibitor, partial curve]

Q: For COc1ccc(Cl)cc1C(=O)NNC(=O)CCNC(=O)c1ccccc1, which Potency is on record?
A: inconclusive: 3.55 µM [inhibitor, single point]

Q: Which Potency does the source give for Cc1ccc(CNC(=O)CCCn2c(=O)c3ccccc3n(CC(=O)Nc3ccc(C)cc3)c2=O)cc1 here?
A: inactive

Q: For O=C(Nc1ccsc1C(=O)N1CCCC1)c1ccccc1, which Potency is on record?
A: inactive

Q: For CCOc1ccc(NC(=S)N/N=C(\C)Cc2ccc(OC)cc2)cc1, which Potency is on record?
A: inconclusive: 25.1 µM [inhibitor, single point]

Q: With COc1ccc(C(=O)CCN2CCN(c3ccc(OC)cc3)CC2)cc1 as the compound, how does the Potency read?
A: inconclusive: 35.5 µM [inhibitor, single point]

Q: For O=[N+]([O-])c1cc(S(=O)(=O)Nc2ccccc2)ccc1N1CCN(c2ccc(O)cc2)CC1, which Potency is on record?
A: inconclusive: 35.5 µM [inhibitor, single point]

Q: With COc1cc(NC(=O)N2CCNC2=O)cc(C(=O)Nc2cccc(C(F)(F)F)c2)c1 as the compound, how does the Potency read?
A: inconclusive: 8.91 µM [inhibitor, partial curve, poor fit]

Q: With O=C(NCCCN1CCCCCC1)c1ccc2c(c1)sc1nc(-c3ccccc3)cn12 as the compound, how does the Potency read?
A: inconclusive: 35.5 µM [inhibitor, single point]

Q: Which Potency does the source give for CC1=C(c2ccc(C)cc2)S(=O)(=O)N(Cc2ccc(C(=O)Nc3ccc(C)c(F)c3)cc2)C1=O here?
A: inconclusive: 3.16 µM [inhibitor, single point]

Q: For O=C(/C=C/c1ccc(OC2CSC2)cc1)c1ccccc1, which Potency is on record?
A: inconclusive: 25.1 µM [inhibitor, single point]

Q: With CC(=O)N1CCc2cc(S(=O)(=O)NC(Cc3ccccc3)C(=O)Nc3cc(C)ccc3C)ccc21 (stereo unspecified) as the compound, how does the Potency read?
A: inactive

Q: Which Potency does the source give for O=C(CSc1nc(-c2ccco2)cc(C(F)(F)F)n1)N1CCN(Cc2ccccc2)CC1 here?
A: inconclusive: 22.4 µM [inhibitor, single point]

Q: Which Potency does the source give for CCOc1ccc(Br)cc1S(=O)(=O)Nc1cccc(S(=O)(=O)N(C)c2ccccc2)c1 here?
A: active: 11.2 µM

Q: Which Potency does the source give for CC(C)=CC(O)C/C(C)=C/COc1ccc2ccc(=O)oc2c1 (stereo unspecified) here?
A: inconclusive: 35.5 µM [inhibitor, single point]

Q: With COc1cccc(-c2nnc(SCc3cccnc3)o2)c1 as the compound, how does the Potency read?
A: inconclusive: 0.251 µM [inhibitor, full curve, poor fit]

Q: For CCC(CC)c1nnc(NC(=O)[C@@H](NC(=O)c2cccc(C)c2)C(C)C)s1, which Potency is on record?
A: inactive

Q: Which Potency does the source give for CC(NCc1ccc2c(c1)OCO2)C(=O)N1CCc2ccccc21 (stereo unspecified) here?
A: inconclusive: 35.5 µM [inhibitor, single point]

Q: For CN(C)c1ccc(-c2csc(C(O)c3cccc(Cl)c3)n2)cc1 (stereo unspecified), which Potency is on record?
A: inactive

Q: Which Potency does the source give for Cc1noc(C)c1CSc1nc2sc(C)c(C)c2c(=O)n1-c1ccccc1 here?
A: inactive

Q: For COc1ccc(S[C@@H](CCN2CC[C@H](C)CCC2=O)c2ccccc2)cc1, which Potency is on record?
A: active: 15.8 µM

Q: For CCOC(=O)c1cc(-c2csc(Nc3c(C)cc(C)cc3C)n2)on1, which Potency is on record?
A: inconclusive: 35.5 µM [inhibitor, single point]

Q: Which Potency does the source give for OC1(c2ccc3c(c2)OCO3)CCN(Cc2ccc(F)cc2)CC1 here?
A: inactive

Q: For COc1ccc2cc(C(=O)C3CCCN(Cc4cccc(C)n4)C3)ccc2c1 (stereo unspecified), which Potency is on record?
A: inconclusive: 10 µM [inhibitor, partial curve, poor fit]

Q: With Cc1ccc2[nH]c3c(c2c1)CCc1cn[nH]c1-3 as the compound, how does the Potency read?
A: inactive

Q: Which Potency does the source give for c1cnc(N2CCN(c3ncc4c(n3)CCNC4)CC2)nc1 here?
A: inactive

Q: With CS(=O)(=O)c1ccc(Cl)c(NC(=O)CCl)c1 as the compound, how does the Potency read?
A: inactive

Q: Which Potency does the source give for CC(C)N(CC(=O)Nc1ccc(Cl)cc1C(F)(F)F)C(=O)CCl here?
A: inconclusive: 35.5 µM [inhibitor, single point]

Q: With NC(=S)NN=C1CCCCCCCC1 as the compound, how does the Potency read?
A: inconclusive: 3.55 µM [inhibitor, full curve, poor fit]

Q: For O=C(NCC(c1cccs1)S(=O)(=O)c1cccs1)c1cccc(F)c1 (stereo unspecified), which Potency is on record?
A: inactive

Q: For CCOc1ccc(S(=O)(=O)N2CCCC(C(=O)NCc3cccnc3)C2)cc1C (stereo unspecified), which Potency is on record?
A: inactive

Q: Which Potency does the source give for COc1cccc(N2C(=O)C(CC(=O)Nc3ccc(F)cc3)N(C3CCCCC3)C2=O)c1 (stereo unspecified) here?
A: inconclusive: 3.16 µM [inhibitor, single point]

Q: For C[C@@H]1CN([C@H](C)CO)C(=O)Cc2cc(NC(=O)Cn3cnnn3)ccc2O[C@@H]1CN(C)Cc1ccc(Cl)c(Cl)c1, which Potency is on record?
A: inconclusive: 25.1 µM [inhibitor, single point]

Q: With COc1ccccc1N(C)S(=O)(=O)c1ccc(C(=O)Nc2ccc3nc(C)sc3c2)cc1 as the compound, how does the Potency read?
A: inconclusive: 3.55 µM [inhibitor, partial curve, poor fit]

Q: Which Potency does the source give for COc1ccc(/C=N/Nc2ncnc3c2[nH]c2ccc(C)cc23)c(OC)c1OC here?
A: inconclusive: 1 µM [inhibitor, partial curve, poor fit]

Q: For COc1cccc(NC(=O)C(c2ccccc2)N2CCN(CC(=O)N3CCOCC3)CC2)c1 (stereo unspecified), which Potency is on record?
A: inactive

Q: For O=C(C1CCCCC1)N1CCc2[nH]c3ccc(F)cc3c2C1, which Potency is on record?
A: inconclusive: 17.8 µM [inhibitor, single point]

Q: With CC(C)CC#Cc1ccc2c(c1)O[C@H](CN(C)C(=O)Cc1ccncc1)[C@H](C)CN([C@H](C)CO)S2(=O)=O as the compound, how does the Potency read?
A: inconclusive: 35.5 µM [inhibitor, single point]

Q: For O=C(CN1CCCCC1)Nc1ccc(S(=O)(=O)c2ccc(NC(=O)CN3CCCCC3)cc2)cc1, which Potency is on record?
A: inactive

Q: For Cn1c(=O)[nH]c(=O)c2c1nc(N1CCOCC1)n2CC(O)COc1ccc2ccccc2c1 (stereo unspecified), which Potency is on record?
A: inactive

Q: With CCc1ccc(NC(=O)C2CCCN2S(=O)(=O)c2ccc3c(c2)CCCC(=O)N3)cc1 (stereo unspecified) as the compound, how does the Potency read?
A: inconclusive: 35.5 µM [inhibitor, single point]

Q: Which Potency does the source give for COc1ccc(CCNC(=O)c2ccc(Cn3c(=O)c4ccccc4n(Cc4cccc(F)c4)c3=O)cc2)cc1OC here?
A: inconclusive: 0.199 µM [inhibitor, full curve, poor fit]

Q: With Cc1ccc(N(C(C)C(=O)Nc2ccc3c(c2)OCO3)S(C)(=O)=O)cc1 (stereo unspecified) as the compound, how does the Potency read?
A: inactive

Q: Which Potency does the source give for CCOC(=O)C1CCN(C(=O)CCc2nnc3ccc(N4CCN(C)CC4)nn23)CC1 here?
A: inactive

Q: With O=C(CCCOC(=O)c1ccc(O)cc1O)c1ccccc1 as the compound, how does the Potency read?
A: inconclusive: 25.1 µM [inhibitor, single point]

Q: Which Potency does the source give for CC1=Nc2cc(C(=O)N3CCC(C)CC3)ccc2Sc2ccc(Cl)cc21 here?
A: inconclusive: 10 µM [inhibitor, partial curve, poor fit]

Q: Which Potency does the source give for CCN(CC)C(=O)CSc1nc2ccc(NC(=O)CSc3nccn3C)cc2s1 here?
A: inactive

Q: Which Potency does the source give for Cc1cc2c(cc1NS(=O)(=O)c1cccc(C#N)c1)n(C)c(=O)c(=O)n2C here?
A: inactive

Q: With Cc1ccc(-n2c(O)c(C=NC3CCS(=O)(=O)C3)c3ccccc3c2=O)cc1C (stereo unspecified) as the compound, how does the Potency read?
A: inactive

Q: Which Potency does the source give for O=C(c1cc2ccccc2c(=O)o1)N1CCCc2ccccc21 here?
A: inconclusive: 35.5 µM [inhibitor, single point]

Q: For COc1cccc(CNC(=O)c2ccc(COc3ccccc3)cc2)c1, which Potency is on record?
A: inconclusive: 0.447 µM [inhibitor, full curve, poor fit]

Q: Which Potency does the source give for CCc1cccc(C)c1NC(=O)Cn1nnc(-c2nc(-c3ccccc3F)no2)c1N here?
A: inconclusive: 1.58 µM [inhibitor, partial curve, poor fit]

Q: For CCN(CC)S(=O)(=O)c1cccc(NC(=O)c2ccc(-n3nc(C)cc3C)cc2)c1, which Potency is on record?
A: active: 7.94 µM

Q: Which Potency does the source give for O=C(COc1ccccc1Br)NCCC1=CCCCC1 here?
A: inconclusive: 35.5 µM [inhibitor, single point]

Q: For Cc1nnc(SCC(=O)N2CC(=O)Nc3ccccc32)n1Cc1ccccc1, which Potency is on record?
A: inactive

Q: With CC1(C)c2ccccc2N(CC(N)=O)C12C=Cc1ccccc1O2 (stereo unspecified) as the compound, how does the Potency read?
A: inconclusive: 31.6 µM [inhibitor, single point]
